Read counts are not given, so values of variants with three or more changes are uncertain.
B1: CPEB3 Ribozyme (parent)
chain: UAACAGGGGGCCACAGCAGAAGCGUUCACGUCGCAGCCCCUGUCAGAUUCUGGUGAAUCUGCGAAUUCUGCUGUAUAUCUC

Variants of: B1
Assay: self-cleavage, relative activity (ratio to wild type); higher = more cleavage; in vitro, sequencing
In short: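 CPEB3 self-cleaving ribozyme mutant libraries were made by rounds of error-prone PCR, barcoded, and transcribed in vitro with T7 RNA polymerase for 5 hours at 37°C. Cleavage occurred during transcription and a 15 min DNase I step before EDTA stop. RNAs were reverse transcribed with template switching and Illumina-sequenced, with DNA sequencing mapping barcodes to variants. Relative activity is the variant's cleaved/total read fraction divided by wild type's (minimum 5 reads), averaged across three batches.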
In the case of A18G A28C U54G, the self-cleavage is reported as 0.24.
In the case of A18G A28C U80C, the self-cleavage is reported as 0.16.
With A18G A28G A47G C68A the self-cleavage was 0.08.
A18G A28G A64G U80A showed a self-cleavage of 0.3.
With A18G A28G U31C U48C U69A the self-cleavage was 0.06.
A18G A28G U41G U60C gave a self-cleavage of 0.27.
Work on A18G A28G U49C A75G yielded a self-cleavage of 0.07.
Variant A18G A28G U67C has a self-cleavage of 0.12.
In the case of A18G A28G U80A, the self-cleavage is reported as 0.37.
A18G A28U A57U showed a self-cleavage of 0.25.
A18G A28U U49C U54C gave a self-cleavage of 0.38.
Work on A18G A28U U72G yielded a self-cleavage of 0.49.
Variant A18G A35G A45G A47U U48C A75C has a self-cleavage of 0.26.
Work on A18G A35G A56G yielded a self-cleavage of 1.03.
For A18G A35G A56U U67C C71U, the self-cleavage was 0.16.
A18G A35G U41A C59A U67C A77G U80C showed a self-cleavage of 0.07.
Work on A18G A35G U41C A45U U72C yielded a self-cleavage of 0.38.
In the case of A18G A35G U69A, the self-cleavage is reported as 0.99.
With A18G A35U A45U A47G U80C the self-cleavage was 0.2.
A18G A35U U51C U69C gave a self-cleavage of 0.54.
A18G A35U U60A showed a self-cleavage of 0.1.
In the case of A18G A45G U58C U69A, the self-cleavage is reported as 0.29.
With A18G A45G U60A U80G the self-cleavage was 0.19.
A18G A45G U67A showed a self-cleavage of 0.33.
In the case of A18G A45U U48C U51A U54A A56G U60C, the self-cleavage is reported as 0.23.
With A18G A45U U51A A64U U72C the self-cleavage was 0.23.
For A18G A45U U66C, the self-cleavage was 0.27.
A18G A45U U78C gave a self-cleavage of 0.34.
For A18G A56G A57G, the self-cleavage was 0.14.
For A18G A56G A75G, the self-cleavage was 0.32.
A18G A56G A75U gave a self-cleavage of 0.7.
For A18G A56G C59U U72C G73A, the self-cleavage was 0.2.
Work on A18G A56G U58C yielded a self-cleavage of 0.24.
Work on A18G A56U U72C yielded a self-cleavage of 0.38.
For A18G A57U U66G, the self-cleavage was 0.19.
A18G A64G C79A U80C gave a self-cleavage of 1.07.
A18G A64G U69C showed a self-cleavage of 1.04.
For A18G A64G U74C, the self-cleavage was 0.76.
A18G A64U C71U showed a self-cleavage of 0.45.
A18G A64U U67C gave a self-cleavage of 0.14.
Variant A18G A65C U80A has a self-cleavage of 0.29.
A18G A65G U72C gave a self-cleavage of 0.26.
Variant A18G A65G U76A U78C has a self-cleavage of 0.28.
For A18G A77C U80G, the self-cleavage was 0.77.
A18G C23A A56G U72C gave a self-cleavage of 0.22.
A18G C23A U25C U41C U54C U78C showed a self-cleavage of 0.27.
A18G C23A U26A A65G U72G showed a self-cleavage of 0.13.
In the case of A18G C23U G46A, the self-cleavage is reported as 0.33.
For A18G C23U G46A U60C, the self-cleavage was 0.06.
A18G C23U U25C showed a self-cleavage of 0.36.
A18G C23U U26C G53A U80G showed a self-cleavage of 0.06.
A18G C23U U31C U49C showed a self-cleavage of 0.06.
In the case of A18G C27A A47G A75U, the self-cleavage is reported as 0.21.
In the case of A18G C27A U67A, the self-cleavage is reported as 0.12.
With A18G C27U A57G the self-cleavage was 0.11.
For A18G C29U A35U U48G U54A A64G, the self-cleavage was 0.08.
A18G C29U G42A A56G G61C showed a self-cleavage of 0.11.
With A18G C32A A45G U49A U51A A64U the self-cleavage was 0.08.
A18G C32U A35G A45G U72A showed a self-cleavage of 0.22.
With A18G C32U U54A A57G U78C the self-cleavage was 0.07.
In the case of A18G C34A A56G, the self-cleavage is reported as 0.55.
A18G C34G U48C U78A showed a self-cleavage of 0.07.
Variant A18G C34U A47G U74C has a self-cleavage of 0.34.
In the case of A18G C34U C40A, the self-cleavage is reported as 0.07.
Work on A18G C34U U41C U43A A65G U67C yielded a self-cleavage of 0.05.
For A18G C38U A65U, the self-cleavage was 0.13.
A18G C38U G42A U43C A45G U48A gave a self-cleavage of 0.
A18G C39A U43C U72C showed a self-cleavage of 0.04.
Variant A18G C40U U43C U54C A56U has a self-cleavage of 0.17.
With A18G C40U U51C G52A A56U G61U A75G the self-cleavage was 0.07.
A18G C40U U58C gave a self-cleavage of 0.06.
A18G C44A G53A U60A A65G U72C gave a self-cleavage of 0.07.
A18G C50U U76C U80C gave a self-cleavage of 0.94.
In the case of A18G C59A U60C A64G U67C, the self-cleavage is reported as 0.09.
Variant A18G G19A A64G has a self-cleavage of 0.24.
With A18G G19A C27U U41C U54C U69C the self-cleavage was 0.11.
In the case of A18G G22A A64C U69A A77G, the self-cleavage is reported as 0.09.
In the case of A18G G22C A45U G52U, the self-cleavage is reported as 0.09.
A18G G22C U49C C81A showed a self-cleavage of 0.87.
Variant A18G G24A A65G U69A has a self-cleavage of 0.05.
Work on A18G G24A U25C U51G U60A U80C yielded a self-cleavage of 0.05.
A18G G24A U26A U49C U66C U78C gave a self-cleavage of 0.1.
With A18G G24A U41G A45U the self-cleavage was 0.38.
Variant A18G G24A U43C U67C has a self-cleavage of 0.06.
